Screen size: about 46,000 compounds; about 60 (0.1%) were called active. Not shown: some 3% with an inconclusive outcome. The call rests on the fitted dose curve; in most records, active means well fitted inhibition curve with a large enough effect; inconclusive means small, poorly fitted or top-dose-only effect; inactive means no such curve, though single readings can be large or run the other way. The list shows a part of the results.
Assay: Primary qHTS assay for Inhibitors of ovarian cancer metastasis using an organotypic tumor microenvironment (TME) model. Further: nearly all actives have a fitted effect of over 65% in size.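 On activity change, negative = inhibition: plate controls were DMSO wells for no effect and tomatine positive control wells for full effect.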
Conditions: SKOV3ip1-GFP adhesion/invasion on 3D omental model, fluorescence; series mostly up to 45.8 µM; activity change, negative = inhibition: at the top concentration
Method in brief: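 qHTS, 4-pt dose (0.36-46 umol/L); SKOV3ip1-GFP, 1,200 cells/well, no FBS; primary omental fibroblast/mesothelial co-culture 48 h pre-grown; 2 h RT + 16 h 37 C; PBS wash, 4% PFA; GFP count 488/509 nm.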

Activity change, negative = inhibition, inactive:
CCC(=O)N1c2ccc(S(=O)(=O)NCc3ccc(F)cc3)cc2CC1C (stereo not given) -4.13%
Cc1ccc(CN2CCSc3ccc(C(=O)NCC(C)c4ccccc4)cc32)cc1 (stereo not given) -21.3%
COc1cccc(NC(=O)C2=C(C)C(=O)OC23CCN(C(C)=O)CC3)c1 17.5%
COc1ccccc1C(=O)Nc1cc2c(cc1N1CCCC1)n(C)c(=O)c(=O)n2C 11.3%
Cc1ccc(Cn2cc(S(=O)(=O)c3cccc(Cl)c3)c(=O)c3cc(F)c(N4CCOCC4)cc32)cc1 36.7%
CCOc1ccc(C2NC(=O)c3c(COC)cc(C)nc3N2Cc2ccccc2)cc1OC (stereo not given) 8.83%
Cc1ccc(NC(=O)Cn2ccn(-c3ccccc3)c(=O)c2=O)cc1 -2.72%
Cc1cc2oc(C(=O)Nc3ccc(S(=O)(=O)Nc4ncccn4)cc3)cc(=O)c2cc1C 1.74%
CCCOc1ccc(CNC(=O)c2ccc(-n3c(C)cc4c3CCC(C)C4)cc2)cc1 (stereo not given) 2.22%
COc1ccccc1-c1noc(CCC(=O)Nc2ccc(C)cc2C)n1 15.6%
CC1CCC(Nc2nc3c(-c4cccc(C(F)(F)F)c4)nnn3c3ccccc23)CC1 (stereo not given) 8.04%
CC(C)OC(=O)c1c(NC(=O)C2c3ccccc3Oc3ccccc32)sc2c1CCCC2 -5.2%
O=C(Nc1cc2c(cc1C(=O)c1ccccc1Cl)OCCO2)c1ccccc1 -1.27%
CN(C)c1ccc(CNC(=O)c2ccccc2NC(=O)c2nsc3ccccc23)cc1 -15.9%
CC1Cc2ccccc2N1C(=O)CSc1nnc(-c2ccccc2Cl)o1 (stereo not given) -1.47%
Cc1ccc2oc(C(=O)Nc3ccc(S(=O)(=O)Nc4onc(C)c4C)cc3)cc(=O)c2c1 -16.5%
CCOC(=O)c1c(C)[nH]c(C)c1S(=O)(=O)N1CCC(C(=O)N2CCN(c3cc(C)ccc3C)CC2)CC1 2.67%
CC1CCN(S(=O)(=O)c2ccc3c(c2)N(CC(=O)NCCc2ccc(Cl)cc2)C(=O)CO3)CC1 -2.77%
Cc1c(Cl)cccc1Nc1nc(N)nc(CSc2nc3ccccc3s2)n1 2.19%
O=C1SC(Nc2ccc(Cl)cc2)C(=O)N1Cc1ccccc1 (stereo not given) 8.66%
CCCc1cc(=O)n2[nH]c(NCc3ccc(CC)cc3)nc2n1 -4.77%
CCCCNC(=O)C1=CC(c2ccc3c(c2)OCO3)=NS(=O)(=O)N1C 6.43%
COc1cccc(C(=O)NCC(=O)OCc2cc(=O)n3nc(C)sc3n2)c1 6.08%
O=C(CSc1ncc(S(=O)(=O)c2ccc(Cl)cc2)c(=O)[nH]1)Nc1ccc2c(c1)OCCO2 -9.46%
CCCC(=O)Nc1nnc(SCc2cc(=O)c3ccc(C)cc3[nH]2)s1 -19.4%
Cc1ccc(-n2nc(CO)c(C(=O)NCCc3ccccc3)n2)cc1 -7.79%
COc1cccc(-n2c(=O)c3sc4ccccc4c3n(CC(=O)Nc3ccccc3OC)c2=O)c1 -14.5%
Cc1ccc(Cl)cc1N1CCN(C(=O)Cn2ncc3c([nH]c4ccccc43)c2=O)CC1 -0.471%
O=S(=O)(c1ccccc1)c1nnn2c1nc(Nc1ccccc1)c1cc(Cl)ccc12 -3.25%
CCC(Sc1nc2ccncc2[nH]1)C(=O)Nc1ccc(F)cc1 (stereo not given) 6.14%
CCOc1ccc(N(C)C(=O)C2CCN(S(=O)(=O)c3ccc4c(c3)CCCN4C(C)=O)CC2)cc1 -2.94%
CCCCOc1nnc(-c2ccc(OCC)cc2)c2ccccc12 -0.0311%
Cc1cc(C)cc(NC(=O)C(NS(=O)(=O)c2cccc3nsnc23)c2ccccc2)c1 (stereo not given) 3.33%
Cc1ccc(Cn2cnc3c(oc4ccccc43)c2=O)cc1 12.6%
Cc1ccccc1NC(=O)c1c2c(nc3ccccc13)C(=O)N(C1CCCCC1)C2 27.8%
COc1cc2nc(N3CCN(C(=O)C4CCCO4)CC3)nc(N)c2cc1OC (stereo not given) -9.92%
CCc1nc2nc(C)cc(Nc3ccc(Br)cc3F)n2n1 -1.46%
O=C(Nc1onc2c1CCCC2)c1ccc(Cl)cc1 3.49%
Cc1oc2ccc(O)c(CN(C)Cc3ccccc3)c2c1C(=O)Nc1cccc(Cl)c1C -2.94%
CCCCn1c2ccccc2c2nnc(SCC(=O)Nc3ccc(NC(C)=O)cc3)nc21 12%
CCc1c(C)sc(NC(=O)c2cc(-c3ccc(OC)cc3)on2)c1C#N 4.23%
COC(=O)c1cc(S(=O)(=O)N2CCN(c3cccc(C)c3)C(C)C2)c[nH]1 (stereo not given) 4.92%
Cc1ccc2c(=O)c(C(=O)c3ccc(F)cc3)cn(CC(=O)NC3CCCCC3)c2n1 6.33%
COc1ccccc1-c1cc(C(F)(F)F)nc(S(=O)(=O)CCCC(=O)Nc2cc(C)ccc2O)n1 -2.02%
CCOc1ccc(-n2c(SCC(=O)NCc3ccco3)nc3c([nH]c4ccccc43)c2=O)cc1 -10.3%
Cc1cccc(-c2nnc3n(CCc4ccccc4)c(=O)c4ccccc4n23)c1 -0.757%
COc1cccc(CNC(=O)c2cc3n(n2)CCCN(Cc2ccc(C)cc2)C3=O)c1OC -2.15%
COc1ccc(-c2nc3ccc(NS(=O)(=O)c4ccccc4)cc3o2)cc1 -3.15%
COc1ccc2c(Sc3ccccc3)c(C(=O)NCc3ccc(OC(C)C)cc3)[nH]c2c1 -6.28%
CN1CCN(c2cccc(Nc3nc4c(-c5ccc(S(C)(=O)=O)cc5)cccn4n3)c2)CC1 -5.08%
COc1ccc(Cl)cc1NC(=O)Cn1c(=O)n(Cc2ccco2)c(=O)c2ccc(C(=O)NC3CCCC3)cc21 13.7%
CCOc1ccc(CNC(=O)c2ccc(-c3nc(CSc4ccc(C)cc4)c(C)o3)cc2)cc1 0.94%
Cc1ccc(C)c(NC(=O)N2CCN(C)c3ncccc32)c1 -9.23%
Cc1ccc(Cn2ccnc2SCC(=O)Nc2ccc3c(c2)OCO3)cc1 -20.7%
Cc1ccc(-n2c3nc(=O)[nH]c(=O)c-3cc3c(Cl)cccc32)cc1 -15%
Cc1ccc(NC(=O)c2sc(-n3nc(C)c(Cc4ccc(Cl)cc4)c3C)nc2C)cc1 2.21%
CN(C)C=NC(=O)c1cc2c(n(-c3ccccc3)c1=O)CC(C)(C)CC2=O 6.71%
Cc1ccc(CN2CCSc3ccc(C(=O)NCCc4ccccc4)cc32)cc1 5.51%
CCOc1ccc(CCNC(=O)CSc2n[nH]c(-c3ccccc3)n2)cc1OCC -0.187%
CCCCOc1ccc(C(C)NC(=O)c2cccc(Nc3nc4ccccc4n4nnnc34)c2)cc1 (stereo not given) 0.323%
COc1ccc(CN(C(=O)Nc2cccc(Cl)c2)c2ccccn2)cc1OC 0.523%
CN(C)c1cc2c(cc1NS(=O)(=O)c1ccccc1)n(C)c(=O)n2C 5.26%
COc1cccc(CSc2nc3n(n2)C(c2cccc(F)c2)C(C(=O)Nc2ccccc2C)=C(C)N3)c1 (stereo not given) 0.323%
COc1ccc(Cl)cc1NC(=O)CCS(=O)(=O)c1cccc2nonc12 -2.91%
Cc1ccc(-c2[nH]c3ccccc3c2SCCNC(=O)c2ccc(S(=O)(=O)N(C)C)cc2)cc1 19.9%
COCCNC(=O)CCC(=O)N1Cc2cccc(OC)c2Oc2ncccc21 4.97%
Cc1ccc(NC(=O)C(=O)NCC(c2cccnc2)N2CCOCC2)cc1Cl (stereo not given) 3.73%
COc1ccc(C)cc1NC(=O)CCc1c(C)nn(-c2ccc(N3CCOCC3)nn2)c1C 60.7%
O=C(Cc1ccc(Cl)cc1)Nc1nnc2n1CCS2 29.3%
Cc1ccc(-n2nc(C)c3c(C)cc(=O)n(CC(=O)N4CCCc5ccccc54)c32)cc1 2.16%
Cc1ccc(NC(=O)c2c(C)oc3ncnc(N4CCCCC4)c23)cc1Cl 9.55%
CCn1cc(S(=O)(=O)c2cccc(Cl)c2)c(=O)c2cc(F)c(N3CCC(C)CC3)cc21 -1.92%

outcome, inactive:
COC(=O)CN1C(=O)CSc2ccc(S(=O)(=O)Nc3cccc(C)c3C)cc21
CCN(C(=O)CSc1nc2ccccc2[nH]1)c1ccccc1
Cc1ccc(NC(=O)C2CCCN(S(=O)(=O)c3cn(C(C)C)cn3)C2)c(C)c1 (stereo not given)
Cc1ccc(C)c(N2CCN(C(=O)c3ccc4c(c3)N(Cc3ccc(F)cc3)C(=O)c3ccccc3S4=O)CC2)c1 (stereo not given)
COc1cc(OC)c(NC(=O)CCc2c(C)nc3cc(-c4ccccc4OC)nn3c2C)cc1Cl
CC(C)c1nn2c(=O)cc(COC(=O)c3ccccc3NC(=O)C3CCCCC3)nc2s1
CCc1ccc2oc(C(=O)Nc3cc(C)ccc3C)cc(=O)c2c1
CC(=O)c1ccc(Nc2cc(C)nc3nc(Cc4ccc(Cl)cc4)nn23)cc1
O=C1CS(=O)(=O)C2(C(=O)N(Cc3ccc(F)cc3)c3ccccc32)N1c1cccc(C(F)(F)F)c1 (stereo not given)
Cc1ccc(NC(=O)CCCn2c3ccccc3c(=O)c3cc(C)ccc32)c(Br)c1
COc1ccc(CCNC(=O)CCc2cn(Cc3ccc(C)cc3)c3ccccc23)cc1OC
O=C(CSc1nnc(-c2ccc(Cl)cc2)o1)N1CCc2ccccc21
CC(=O)Nc1ccc(S(=O)(=O)Nc2ccc(-c3cn4c(C)csc4n3)cc2)cc1
CCOc1ccc(CNC(=O)c2cc3c(=O)n(Cc4cccs4)ccc3nc2C)cc1
CCN(Cc1ccccc1)C(=O)Cn1c(=O)n(-c2ccc(OC)cc2OC)c(=O)c2c(C)c(C)sc21
CCOc1ccc(NC(=O)c2c(NC(=O)Cc3ccccc3)sc3c2CCCC3)cc1
O=c1n(Cc2cccc(F)c2)c2ccccc2c2nc(-c3ccccc3)nn12
COc1ccc(Cl)cc1NC(=O)C1CCN(c2nnc(C)c3c(C)n(-c4ccccc4)nc23)CC1
Cc1c(CC(=O)N2CCCCC2)c(=O)oc2c(C)c3occ(C(C)(C)C)c3cc12
Cc1ccc(O)c(NC(=O)c2cc(-c3ccc4c(c3)OCO4)on2)c1
Cc1cccc(N2CCN(C(=O)c3ccc(CS(=O)c4cccc(Cl)c4)o3)CC2)c1C (stereo not given)
CCSc1nnc2c(n1)OC(c1ccc(C)cc1)N(C(C)=O)c1ccccc1-2 (stereo not given)
COc1ccc(CNC(=O)CCCN2C(=O)CSc3c2c(C)nn3-c2ccccc2)c(OC)c1

— PubChem BioAssay AID1963576 (National Center for Advancing Translational Sciences (NCATS), 2024)
